Several values for one entry are separate records, joined by “and”; a condition that tells them apart may be missing. Identical values can stand only once. The campaign covered roughly 48,000 compounds. About 1,200 (2.5%) were called active. About 2% were inconclusive and are not listed.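 How the source made its calls: active means activation of at least 60% and not above a set upper limit (about 1 call in 100 departs from these limits); inconclusive means activation of 40% to 60%, or above that upper limit; inactive means activation under 40%.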 This is one part of the list. Some compounds were tested as several samples or in several runs, with calls that do not always agree.

This passage reports activation results from PubChem BioAssay AID1346428 (National Center for Advancing Translational Sciences (NCATS), 2018).

In this experiment the target is Probable G-protein coupled receptor 32 (Homo sapiens) (UniProt O75388). The experiment in a line: qHTS for Agonists of Human Resolvin D1 Receptor DRV1. Further: 0% is about no effect. Particulars: CHO-K1 GPR32 beta-arrestin PathHunter luminescence, 90 min; at 76.9 µM; stronger effect = higher value; zero percent set by DMSO-only wells. The method, boiled down: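 Step 1: seed CHO-K1 GPR32 beta-arrestin cells, 2,500/well, overnight at 37 °C. Step 2: add compounds, 90 min at 37 °C. Step 3: detection reagent, 1 h ambient, then luminescence.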
Sequence of UniProt O75388 (O75388 whole entry, looked up): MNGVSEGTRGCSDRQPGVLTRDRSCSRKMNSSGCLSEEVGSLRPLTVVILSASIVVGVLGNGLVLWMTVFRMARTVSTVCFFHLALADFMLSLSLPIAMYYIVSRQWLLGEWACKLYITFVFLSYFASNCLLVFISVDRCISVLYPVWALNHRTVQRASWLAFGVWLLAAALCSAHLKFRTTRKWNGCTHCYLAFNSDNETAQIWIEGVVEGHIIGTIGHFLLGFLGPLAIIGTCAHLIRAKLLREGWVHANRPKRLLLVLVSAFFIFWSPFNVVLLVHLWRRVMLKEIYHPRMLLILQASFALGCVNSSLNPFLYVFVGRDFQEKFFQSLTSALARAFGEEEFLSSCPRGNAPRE
For orientation: Quantitative high-throughput screening tests each substance at several concentrations.
As for `CCOC(=O)c1c(S(=O)(=O)N2CCC(C(=O)NCc3ccccc3Cl)CC2)c(C)n(C)c1C`, the activation was inactive: -6.23%. As for `CCOC(=O)c1c(NC(=O)C(C)Sc2cn(CCNC(=O)c3ccc(OCC)cc3)c3ccccc23)sc2c1CCC2` (stereo not drawn), the activation was inactive: 6.76%. On to `Cc1cccc(N2CCN(C(=O)c3cnn(-c4ccccc4)c3C3CCN(C(=O)OC(C)(C)C)CC3)CC2)c1C`, for which the activation is inactive: -18.3%. Then `CCc1nc2nc(C)cc(Nc3cc(C)ccc3C)n2n1`, with inactive: 9.75%; and `CCOC(=O)c1ccc(NC(=O)Cn2nc(C)c3nn(-c4ccc(Cl)cc4)c(C)c3c2=O)cc1`, with inactive: -15.6%; and `Clc1ccc(CSc2nncn3c2cc2occc23)cc1`, with inactive: -8.26%. To `Cc1ccc(Nc2ncnc3c2nc2n3CCCC2)cc1F` belongs inactive: -8.5%; to `CC(c1cc2ccccc2s1)N(O)C(N)=O` (stereo not drawn), inactive: 8.71%; to `Cc1nc2nc[nH]n2c(=O)c1NS(=O)(=O)c1ccc(Br)cc1`, inactive: 6.46%. To `COc1ccccc1CNC(=O)C1CCN(S(=O)(=O)Cc2ccccc2)CC1` belongs inactive: 11.2%; to `CC1=C(c2ccc(Cl)cc2)S(=O)(=O)N=C1N1CCN(c2cc(C)ccc2C)CC1`, inactive: -14.2%; to `COc1cccc(Cn2c(=O)n(Cc3ccccc3)c(=O)c3c2c2cc(OC)ccc2n3C)c1`, inactive: -9.71%. On to `CCCN1CCCc2cc(CN(CCCN3CCOCC3)C(=O)Nc3ccc(Cl)c(Cl)c3)ccc21`, for which the activation was inactive: 0.0212%. To `COc1ccc(CNC(=O)C(=O)NCC(c2cccnc2)N2CCN(c3ccccc3)CC2)cc1` (stereo not drawn) belongs inactive: -1.66%; to `Cc1cccc(N(C)S(=O)(=O)c2ccc3c(c2)NC(=O)CC(=O)N3)c1`, inactive: 7.82%. In the case of `Cc1cc(C)cc(-n2c(SCC(=O)Nc3ccc4c(c3)OCO4)nc3c([nH]c4ccccc43)c2=O)c1`, the activation was inactive: 3.08%. To `COc1ccc2sc(N(Cc3cccnc3)C(=O)CCc3ccccc3)nc2c1` belongs inactive: -27%; to `Cc1cc2[nH]c(=O)c(=O)[nH]c2cc1S(=O)(=O)N1CCN(c2ccccc2F)CC1`, active: 70.1%. Then `CCOc1c(N2CCOCC2)cnn(C)c1=O`, with inactive: -16.1%. To `CCOc1ccc(Nc2nc3c(S(=O)(=O)c4ccc(CC)cc4)nnn3c3ccc(Cl)cc23)cc1` belongs inactive: 2.21%; to `CC1CCN(S(=O)(=O)c2ccc3c(ccc(=O)n3CC(=O)NCc3ccc(Cl)cc3)c2)CC1`, inactive: 5.91%; to `COc1ccc(-c2nc(Cn3c(=O)cc(-c4ccccc4)c4c(C)nn(C)c43)c(C)o2)cc1OC`, inactive: -7.21%.

Regarding `CC(=O)c1cccc(NC(=O)CCc2nc3cccnc3n2Cc2cccs2)c1`, the activation is inactive: -4.29%. Then `CC(=O)N1CCc2cc(Br)cc(S(=O)(=O)NCCc3ccc(Cl)cc3)c21`, with inactive: 14.6%; and `CC1=C(/C=C/C(C)=C/C=C/C(C)=C/C(=O)Nc2ccc(O)cc2)C(C)(C)CCC1`, with active: 84.2% and inactive: 26.9%. Then `CCOC(=O)CSc1nc(-c2ccc(F)cc2)cc(C(F)(F)F)c1C#N`, with inactive: 33.5%. Consider `O=C(c1cccn1-c1nnc(N2CCCCC2)s1)N1CCN(c2ccc(Cl)cc2)CC1`, for which the activation is inactive: -0.232%. Then `COc1ccc(CCNc2nc3ccc(C)cc3n3cnnc23)cc1OC`, with inactive: -4.83%; and `Cc1cc(C)cc(NC(=O)C(CC(C)C)NC(=O)C2CCCCC2)c1` (stereo not drawn), with inactive: 14.3%; and `CN(C)c1ccc(C(=O)Nc2c(C(=O)NC(C)(C)C)oc3ccccc23)cc1`, with inactive: -9.13%. To `CC(C)Oc1ccc(CNC(=O)c2ccc3nc(C(C)C)oc3c2)cc1` belongs inactive: -12.2%; to `CCc1ccccc1N1CC(c2nc3ccccc3n2CCOc2ccc(Cl)c(C)c2)CC1=O` (stereo not drawn), active: 77.1%. To `CCNc1nc(NC(C)(C)C)nc(Oc2ccc(=O)n(-c3ccccc3)n2)n1` belongs inactive: 32%. On to `CCn1c(C(=O)N2CCC(C(=O)N3CCN(c4ccc(OC)cc4)CC3)CC2)cc2sccc21`, for which the activation was inactive: 14.9%. Consider `COc1ccc(S(=O)(=O)N(CC(=O)Nc2cc(C)cc(C)c2)c2ccc(Cl)cc2)cc1`, for which the activation is inactive: -1.2%. To `COc1ccc(Cl)cc1N=C1NC(=O)CC(C(=O)Nc2ccccc2C(F)(F)F)S1` (stereo not drawn) belongs inactive: 13.3%. To `CCc1nn2c(=O)cc(COC(=O)c3ccc4c(c3)OCO4)nc2s1` belongs inactive: 29.4%.

As to `O=C(NCCn1cc(SCc2ccccc2)c2ccccc21)c1cccs1`, the activation is inactive: 20.1%. For the compound `CCCc1cc(=O)[nH]c(Nc2ccccc2O)n1`, the activation was inactive: 6.57%. For the compound `COc1ccc(-c2nc3scc(CCNS(=O)(=O)c4c(C)cc(C)cc4C)n3n2)cc1OC`, the activation is inactive: -11.2%.

As to `NC(=O)c1ncn([C@@H]2O[C@H](CO)[C@@H](O)[C@H]2O)c1N`, the activation was inactive: 7.7%. To `CC(=O)c1c(C)n(-c2ccc(Cl)cc2)c2ccc(OC(=O)COc3ccccc3)cc12` belongs inactive: 3.73%; to `Cc1cc(C)cc(C(=O)Nc2cccc(-c3nc4ncccc4o3)c2C)c1`, inactive: -4.56%; to `COc1ccccc1CNC(=O)CCCCn1c(=O)c2ccccc2n(Cc2ccccc2C)c1=O`, inactive: -7.22%.

As for `CC(C)(C)C1CCc2c(sc(NC(=O)c3ccccc3F)c2C(=O)NCc2ccco2)C1` (stereo not drawn), the activation is inactive: 11.2%. To `COc1ccc(C2=NS(=O)(=O)N(C)C(C(=O)Nc3ccc(OC(F)(F)F)cc3)=C2)cc1` belongs inactive: -21.5%; to `c1ccc(N2CCN(Cc3nnc(-c4ccc5c(c4)OCO5)o3)CC2)cc1`, inactive: 0.0837%. Then `CCOC(=O)c1cc2c(=O)n3ccccc3nc2n(CCOC)c1=NC(=O)c1cc2ccccc2o1`, with inactive: -14.8%. Then `Cc1nn(-c2ccc(N3CCCC3)nn2)c(C)c1CCC(=O)NCc1ccccc1`, with inactive: -10.7%. With `CN(Cc1ccccc1)S(=O)(=O)c1nnc(NC(=O)c2ccccc2Cl)s1`, the activation is inactive: 16%. With `Cc1cccc(N2CCN(C(=O)c3cnc4c(C)cccn4c3=O)CC2C)c1` (stereo not drawn), the activation was inactive: 27.8%. Then `O=C(NCc1ccccc1Cl)C1CCCN(C(=O)c2cnn(-c3ccc(F)cc3)c2-n2cccc2)C1` (stereo not drawn), with inactive: 43.6%; and `CCOc1ccc(NC(=O)CSc2nc3c([nH]c4ccccc43)c(=O)n2-c2cc(C)cc(C)c2)cc1`, with inactive: 3.51%.
